Data taken from PubChem BioAssay AID588855 (National Center for Advancing Translational Sciences (NCATS), 2011).
Out of some 410,000 compounds screened, about 5,000 (1.2%) were called active. The inconclusive results got no clear call from the source; some entries with a clear call stand among them for comparison. Calls come from the whole dose curve; as a rule, active = well fitted inhibition curve with a large enough effect; inconclusive = small, poorly fitted or top-dose-only effect; inactive = no such curve, though single readings can be large or run the other way. Potencies beside an inconclusive call are fits to weak or partial responses and may not hold up.

Test: qHTS for Inhibitors of TGF-b; note: nearly all actives have a fitted effect of over 65% in size
Settings: HepG2 CAGA-GFP TGF-b/SMAD3 reporter, GFP fluorescence, 18 h, TGF-beta stimulated, 500 pg/mL final; series mostly up to 46.1 µM; activity, negative = inhibition: at the top concentration
How it was run: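 Using HEPG2 CAGA-GFP reporter cells at 1000 cells/well, we pinned test compounds, stimulated with recombinant TGF-beta (500 pg/mL final) and measured total well GFP after 18 h.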
% is set by controls: 0 for no effect and ±100 for the full control effect; potency is the fitted concentration of half-maximal effect; tags give direction and shape of the fitted curve.

| SMILES | Potency | activity, negative = inhibition |
| --- | --- | --- |
| Cc1cccc(Nc2cc(C)nc(-n3nc(C)cc3C)n2)c1 | inconclusive: 39.8 µM [inhibitor, partial curve, poor fit] |  |
| CCOc1ccc(CN2C(=O)C(=O)c3cccc(C)c32)cc1OC | inconclusive: 31.6 µM [inhibitor, single point] |  |
| Cc1cccc(NCC(=O)N/N=C/c2ccc(Br)cc2)c1 | inconclusive: 11.2 µM [inhibitor, partial curve] |  |
| O=C1c2ccsc2SCCN1Cc1ccc(F)cc1 | inconclusive: 35.5 µM [inhibitor, single point] |  |
| COc1cc(C=CC(=O)N2CCN(CC(=O)N3CCCC3)CC2)cc(OC)c1OC |  | inactive: -7.92% |
| COc1ccc(CN(C)C(=O)c2cccc(S(=O)(=O)N3CCCc4ccccc43)c2)c(OC)c1OC | inconclusive: 35.5 µM [inhibitor, single point] |  |
| N#C/C(=N\Nc1cc(Cl)cc(Cl)c1)c1nnc2n1CCCCC2 | inconclusive: 12.6 µM [inhibitor, partial curve, poor fit] |  |
| CCN(CC)c1ccc(N=C2C(=O)Nc3ccccc32)cc1 | inconclusive: 8.91 µM [inhibitor, partial curve, poor fit] |  |
| CCCCCCCCCCCCCCCC[N+](C)(C)Cc1ccc(F)cc1 | inconclusive: 35.5 µM [inhibitor, partial curve, poor fit] |  |
| CCCSc1ncc(Cl)c(C(=O)Nc2ccc(S(=O)(=O)N3CC(C)OC(C)C3)cc2)n1 (stereo not given) | inconclusive: 35.5 µM [inhibitor, partial curve, poor fit] |  |
| CC(C)OC(=O)c1nnc(Cc2ccc(Cl)cc2)o1 | inconclusive: 35.5 µM [inhibitor, single point] |  |
| CC(C)N1CC2(CC(c3ccccc3F)=NO2)CN1C(=O)c1ccco1 (stereo not given) | inconclusive: 22.4 µM [inhibitor, partial curve, poor fit] |  |
| CSc1ncc(Cl)c(C(=O)C(C#N)c2nc3c(C)cc(C)cc3c(=O)[nH]2)n1 (stereo not given) | inconclusive: 2.51 µM [inhibitor, full curve] |  |
| CCCCOc1ccccc1Cn1c(=O)sc2ccccc21 | inconclusive: 22.4 µM [inhibitor, single point] |  |
| CN(CC(=O)Nc1ccccc1Cl)C(=O)Cn1cnc2ccccc2c1=O |  | inactive: 14.5% |
| Cc1cc(NC(=O)C2CCN(S(=O)(=O)c3cccs3)CC2)no1 | inconclusive: 12.6 µM [inhibitor, single point] |  |
| O=C(c1cc(COc2ccc(F)c(F)c2)on1)N1CCN(C/C=C/c2ccccc2)CC1 | inconclusive: 22.4 µM [inhibitor, single point] |  |
| Nc1ncnc(Nc2ccccn2)c1[N+](=O)[O-] |  | inactive: -19.3% |
| O=C(C1CCCCC1)N1CCN(c2ccnc3cc(Cl)ccc23)CC1 |  | inactive: -23.9% |
| CCN(CC)C(=O)c1cccc(-c2csc(C(O)(c3ccccc3)C(F)(F)F)n2)c1 (stereo not given) | inconclusive: 22.4 µM [inhibitor, single point] |  |
| Cc1ccc(C(=O)Nc2ncc(C)s2)s1 |  | inactive: 0.737% |
| CCCCOc1ccc(C(=O)NCC(=O)OC2CCOC2=O)cc1 (stereo not given) | inconclusive: 35.5 µM [inhibitor, single point] |  |

| SMILES | Potency | activity, negative = inhibition |
| --- | --- | --- |
| N/C(=C\C(=O)c1cc(Cl)ccc1O)C(Cl)(Cl)Cl | active: 10 µM |  |
| Cc1ccc(N/N=C/c2c(C)c(C#N)c(=O)n(C)c2O)cc1C |  | inactive: -11.7% |
| CCN(CC)c1ccc(NC(=O)c2cc(OC)cc(OC)c2)c(C)c1 | inconclusive: 11.2 µM [inhibitor, partial curve, poor fit] |  |
| COc1ccc(F)cc1CN1CCN(C(=O)CCC(=O)Nc2nnc(C3CCCCC3)s2)CC1 | inconclusive: 35.5 µM [inhibitor, single point] |  |
| COc1ccc(-n2ccnc2CN2CCCC(CO)(Cc3cccc(OC)c3)C2)cc1 (stereo not given) | inconclusive: 8.91 µM [inhibitor, partial curve, poor fit] |  |
| Nc1c(C(=O)NCc2ccco2)c2nc3ccccc3nc2n1CCc1ccccc1F | inconclusive: 0.398 µM [inhibitor, full curve, poor fit] |  |
| O=C(N/N=C/C=C/c1ccc([N+](=O)[O-])cc1)C1COc2ccccc2O1 (stereo not given) |  | inactive: 16.3% |
| Cc1cc2oc(=O)cc(CN3CCCCC3C)c2cc1C(C)C (stereo not given) | inconclusive: 3.55 µM [inhibitor, single point] |  |
| CC(C)(O)[C@@H]1CC[C@@](C)(C2CC[C@]3(C)C2[C@H](O)CC2[C@@]4(C)CC[C@H](O)C(C)(C)C4[C@@H](O[C@H]4O[C@@H](CO)[C@H](O)[C@@H](O)[C@@H]4O[C@@H]4O[C@H](CO)[C@@H](O)[C@H](O)[C@H]4O)C[C@]23C)O1 (stereo in doubt) |  | inactive: 16.6% |
| CCOc1cc(CNCCCN2CCOCC2)cc(Br)c1OCC(=O)Nc1cccc(C(F)(F)F)c1 | inconclusive: 22.4 µM [inhibitor, single point] |  |
| O=C(CSc1cccc2cccnc12)OCC(=O)c1ccccc1 | inconclusive: 22.4 µM [inhibitor, single point] |  |
| CCCCCCCCCC[n+]1ccc(/C=C/c2c[nH]c3ccccc23)c2ccccc21 | active: 7.08 µM |  |
| O=C(CCCN1C(=O)/C(=C/c2ccccc2Cl)SC1=S)Nc1ccccn1 | inconclusive: 4.47 µM [inhibitor, partial curve] |  |
| O=C(CN1CCc2cc3c(cc2C1)OCCCO3)Nc1cccc([N+](=O)[O-])c1 | inconclusive: 22.4 µM [inhibitor, single point] |  |
| CC1=NN(c2ccccc2)C(=O)C1/C=C1\NC(=S)NC1=O (stereo not given) |  | inactive: 6.15% |
| COc1cc(CC(=O)Nc2ccc(N3CCOCC3)cc2)cc(OC)c1OC |  | inactive: -1.37% |
| CCOC(=O)c1ccc(-n2c(CN3CCC(O)CC3)nc3ccc([N+](=O)[O-])cc3c2=O)cc1 | inconclusive: 15.8 µM [inhibitor, single point] |  |
| CN(C)CCCN(C(=O)c1cc(-c2cccs2)nc2ccccc12)c1nc2ccc(F)cc2s1 | inconclusive: 35.5 µM [inhibitor, single point] |  |
| CN(CCCc1cnc[nH]1)C(=S)NCCCN(Cc1ccc(Cl)cc1)c1ccc(Br)cn1 | active: 7.08 µM |  |
| COc1ccccc1Nc1nc(N)nc(N)c1S(=O)(=O)c1ccccc1 | inconclusive: 12.6 µM [inhibitor, partial curve, poor fit] |  |
| CCOC(=O)c1c(C)[nH]c(C)c1S(=O)(=O)N1CCCC(C(=O)Nc2cccc(CC)c2)C1 (stereo not given) | inconclusive: 0.501 µM [inhibitor, full curve, poor fit] |  |
| CC(=O)N1CCc2cc(Br)cc(S(=O)(=O)NCCc3cccc(C)c3)c21 | inconclusive: 0.631 µM [inhibitor, full curve] |  |

| SMILES | Potency | activity, negative = inhibition |
| --- | --- | --- |
| O=C(CSc1nc2[nH]c(=O)cc(O)c2s1)Nc1ccc(Cl)c(C(F)(F)F)c1 |  | inactive: -3.75% |
| CNC(C)C#Cc1ccc2c(=O)c3cc(C)c(C)cc3oc2c1 (stereo not given) | inconclusive: 20 µM [inhibitor, single point] |  |
| COc1cc(C)c(C(=O)Oc2cc(C)c(C(=O)O)c(O)c2C)c(OC)c1C | inconclusive: 28.2 µM [inhibitor, single point] |  |
| CSc1ccc(/C=C/c2nc3ccccc3n2S(=O)(=O)c2ccc(Br)cc2)cc1 | inconclusive: 35.5 µM [inhibitor, partial curve, poor fit] |  |
| Cc1nc2c(OCc3cccc(Cl)c3)cccn2c1N(C)Cc1cccs1 | inconclusive: 20 µM [inhibitor, single point] |  |
| Cc1cc(C(=S)N2CCOCC2)c(C)n1-c1ccc(Cl)cc1 |  | inactive: -21.8% |
| COc1ccccc1NC(=O)CSc1nc(=O)n(Cc2ccncc2)c2c1CCCC2 | inconclusive: 3.55 µM [inhibitor, single point] |  |
| COc1ccc(CNC(=O)Nc2nc(C(N)Cc3ccc(Cl)cc3)cs2)cc1 (stereo not given) | inconclusive: 20 µM [inhibitor, single point] |  |
| Cc1ccc(/C(O)=C/C(=O)C(=O)NC23CC4CC(CC(C4)C2)C3)cc1 |  | inactive: 8.77% |
| O=C(c1cccc(F)c1)N1CCN(c2cccc(C(F)(F)F)c2)CC1 |  | inactive: -7.78% |
| Cc1ccc(C(=O)NCC(=O)NCC(=O)OCc2ccc(Cl)cc2)cc1 |  | inactive: -9.31% |
| Nc1nc(Nc2cccc(Cl)c2)sc1C(=O)c1ccc(F)cc1 | inconclusive: 20 µM [inhibitor, partial curve, poor fit] |  |
| COc1ccc(S(=O)(=O)NCCc2csc(-c3cccc(F)c3)n2)cc1OC | inconclusive: 22.4 µM [inhibitor, single point] |  |
| CCCNC(=S)Nc1ccc(Br)cc1 | inconclusive: 15.8 µM [inhibitor, single point] |  |
| CCn1cc(S(=O)(=O)c2ccc(OC)cc2)c(=O)c2cc(F)c(N3CCCCCC3)cc21 |  | inactive: 0.231% |
| COc1ccc(CC(=O)NNc2ncnc3c2cnn3-c2ccc(C)cc2)cc1OC |  | inactive: 0% |
| O=C(C1CCN(S(=O)(=O)N2CCC3(CC2)OCCO3)CC1)N1CCCCC1 | inconclusive: 35.5 µM [inhibitor, single point] |  |
| CCOc1cc(/C=N/NC(=O)c2cc(C)n(-c3ccc(F)cc3)c2C)ccc1O | inconclusive: 17.8 µM [inhibitor, single point] |  |
| COc1ccc(N2CCN(C3CCCN(Cc4ccc(F)c(F)c4)C3)CC2)cc1 (stereo not given) | inconclusive: 8.91 µM [inhibitor, partial curve, poor fit] |  |
| COc1ccc(NC(=O)C2CCCN(S(=O)(=O)c3c(C)[nH]c(=O)[nH]c3=O)C2)cc1 (stereo not given) | inconclusive: 25.1 µM [inhibitor, single point] |  |
| O=C(NC1CCCC1)C(c1cccs1)N(Cc1ccco1)C(=O)Cn1nnc(-c2cccs2)n1 (stereo not given) |  | inactive: -18% |
